Results from PubChem BioAssay AID485313 (National Center for Advancing Translational Sciences (NCATS), 2010).
Hit rate of the full screen: of about 320,000 compounds, about 7,600 (2.4%) were called active. Inconclusive results, whose numbers are uncertain, are shown with a selection of clear calls. The call rests on the fitted dose curve; in most records, active means well fitted activation curve with a large enough effect; inconclusive means small, poorly fitted or top-dose-only effect; inactive means no such curve, though single readings can be large or run the other way. Potencies of inconclusive entries are left out as doubtful fits.

assay: qHTS Assay for NPC1 Promoter Activators; conditions: Huh7 NPC1 promoter luciferase reporter, 24 h; series mostly up to 9.22 µM; activation: at the top concentration; further: nearly all actives have a fitted effect of over 60% in size;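 on activation: reporter is driven by a mutant NPC1 promoter; % of control where 0% means no effect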
Outline: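 Readout is luciferase luminescence, reflecting NPC1 promoter activation in stably transfected Huh7 cells after 24 h compound exposure at 37 °C in reduced-serum medium with 10% FBS.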
Potency means the concentration at half of the fitted maximal effect; tags describe the fitted curve by direction and shape.

| SMILES | Potency | activation |
| --- | --- | --- |
| COc1cccc(Nc2ncnc3c2cnn3-c2cccc(C)c2)c1 | inconclusive [activator, single point] | – |
| COc1cccc(C(=O)Nc2nnc(-c3cccs3)s2)c1 | inconclusive [activator, single point] | – |
| CC(=O)Nc1ccc(S(=O)(=O)/N=C2\C(=O)c3ccccc3C([O-])=C2n2cc[n+](-c3ccccn3)c2)cc1 | inconclusive [activator, single point] | – |
| CN(C)c1ccc(NC(=O)c2ccc3nsnc3c2)cc1 | inconclusive [activator, single point] | – |
| COc1ccc(-c2nnc(-c3ccccc3O)o2)cc1 | inconclusive [activator, single point] | – |
| COc1ccc2c(c1OC)C(=O)OC2Nc1nc(-c2cc3ccccc3oc2=O)cs1 (stereo not given) | active: 0.891 µM | – |
| Cc1c(C(N)=O)sc2nc(-c3ccccc3)cn12 | inconclusive [activator, single point] | – |
| CCOC(=O)c1sc(NC(=O)c2cccnc2)nc1C | – | inactive: 16.2% |
| Cc1ccc(/C=N/NC(=O)c2cccs2)s1 | inconclusive [activator, partial curve] | – |
| COc1ccc(/C=N/N2CCN(C)CC2)cc1O | – | inactive: 1.39% |
| C(=N\N1CCN(Cc2cccc3ccccc23)CC1)/c1ccco1 | – | inactive: 2.06% |
| CCN(CCO)c1ccc(N=Nc2cc(C)[nH]n2)cc1 | inconclusive [activator, full curve, poor fit] | – |
| COc1cc(SC)ccc1C(=O)Nc1ccon1 | inconclusive [activator, partial curve] | – |
| Cc1cccc(NC(=O)c2ccc(-c3ccccc3[N+](=O)[O-])o2)c1 | inconclusive [activator, single point] | – |
| CCOC(=O)C1=NN(c2ccc(Cl)cc2)C(=O)C1 | inconclusive [activator, single point] | – |
| O=c1c2[nH]c3ccc(F)cc3c2ncn1C1CCCCC1 | inconclusive [activator, partial curve] | – |
| COc1cccc(C(=O)Nc2ccc(C(F)(F)F)n(C)c2=O)c1 | active: 2.82 µM | – |
| COc1cccc(CNC(=O)c2ccncc2)c1 | – | inactive: 3.69% |
| Cc1cc(C(=O)CSc2nnc(N)s2)c(C)n1C1CC1 | inconclusive [activator, partial curve] | – |
| COc1ccc(N2C(=O)c3ccccc3NC2c2ccccc2O)cc1 (stereo not given) | active: 1.41 µM | – |
| COc1ccc(CCc2nnc(CCC(=O)NCc3ccc4ncccc4c3)o2)cc1 | – | inactive: 0.175% |
| COc1ccc(C(=O)NCC(C)(C)N2CCOCC2)cc1S(=O)(=O)N1CCCC1 | – | inactive: -1.73% |
| CCn1nc(C(=O)OCC(=O)Nc2nc(-c3ccc(OC)cc3)cs2)c2ccccc2c1=O | inconclusive [activator, partial curve] | – |
| O=C(Nc1ccnn1C1CCN(C2CCCC2)CC1)c1ccccc1Cl | – | inactive: 2.91% |
| CCc1nc2oc3ccccc3c(=O)c2cc1C(=O)OC | active: 3.16 µM | – |
| O=C(CCN1C(=O)c2ccccc2C1=O)CN1CCOCC1 | – | inactive: -3.15% |
| O=C(N/N=C/c1cccc([N+](=O)[O-])c1)c1cccs1 | inconclusive [activator, single point] | – |

| SMILES | Potency | activation |
| --- | --- | --- |
| O=C(NC1CCCCCCC1)c1cccc(Cl)c1 | inconclusive [activator, single point] | – |
| COC(=O)c1cccc(S(=O)(=O)N(Cc2ccco2)Cc2cc3ccc(OC)cc3[nH]c2=O)c1 | – | inactive: -5.05% |
| Cc1ccc(-c2nc3ccc(NS(=O)(=O)c4ccccc4)cc3[nH]2)o1 | active: 3.98 µM | – |
| O=C1C(C=NCC2CCCO2)=C(O)c2ccccc21 (stereo not given) | inconclusive [activator, partial curve] | – |
| O=C(Nc1cccc(Cl)c1)c1cc(S(=O)(=O)N2CCOCC2)cs1 | – | inactive: -5.86% |
| O=C(COc1ccc(F)cc1)NCC1(N2CCCCC2)CCCCC1 | – | inactive: -1.77% |
| CCOc1ccc2nc(C(=O)N3CCCC(C)C3)sc2c1 (stereo not given) | active: 2 µM | – |
| c1ccc(Oc2cc(-n3cccn3)ncn2)cc1 | inconclusive [activator, partial curve] | – |
| Cn1c(C(=O)N/N=C/c2ccccc2)cc2ccccc21 | inconclusive [activator, partial curve] | – |
| N/C(=N\OC(=O)c1cc(Br)ccc1Cl)c1ccccn1 | inconclusive [activator, single point] | – |
| Cc1cc(C(=O)COC(=O)c2cccnc2Cl)c(C)n1CC1CCCO1 (stereo not given) | inconclusive [activator, partial curve] | – |
| COc1ccc(CCN(C)C(=O)c2cc(S(=O)(=O)N3CCCCC3)ccc2Cl)cc1OC | – | inactive: 1.14% |
| CCN1C(=S)SC(=O)C1=C1C=C(C)OC(C)=C1 | inconclusive [activator, partial curve] | – |
| CC1=CN2C(=NC(=O)CC2(C)C(=O)N(CC(=O)NC2CCCC2)Cc2ccc(Cl)cc2)C=C1 (stereo not given) | – | inactive: -3.11% |
| Cc1cc(N/C=C/C(=O)c2ccc(Br)cc2)no1 | inconclusive [activator, single point] | – |
| Cc1occc1C(=O)Nc1nnc(-c2cccs2)s1 | inconclusive [activator, single point] | – |
| COC(=O)C1=C(C)N(CCc2c[nH]c3ccccc23)C(=O)/C1=C\N(C)C | – | inactive: -9.3% |
| CC(C)(C)C(=O)/C(=C/c1ccc(Cl)cc1)n1cncn1 | – | inactive: -26.3% |
| Nc1cc(C(=O)c2ccccc2)ccc1N1CCOCC1 | inconclusive [activator, partial curve] | – |
| Cc1cc(N2CCOCC2)nc2ccc(Cl)cc12 | inconclusive [activator, partial curve] | – |
| COc1cccc(NC(=O)c2ccc3c(c2)CCCC3)c1 | active: 1.41 µM | – |
| COc1cccc(NC(=O)c2ccc3c(c2)OCCO3)c1 | active: 1.78 µM | – |
| CCN(CC)S(=O)(=O)c1cccc(NC(=O)/C=C/c2ccc([N+](=O)[O-])cc2)c1 | – | inactive: -1.01% |
| COc1ccccc1OCCCC(=O)Nc1nccs1 | inconclusive [activator, partial curve] | – |
| CCc1ccc(NC(=O)C2CCN(S(=O)(=O)c3ccc4c(c3)CC(C)N4C(C)=O)CC2)cc1 (stereo not given) | – | inactive: -6.6% |
| CCN1CCN(Cc2ccc(NC(=O)c3cc(NC(=O)c4cc5cccc(OC)c5o4)cc(OC)c3)cc2C(F)(F)F)CC1 | – | inactive: 2.26% |
| O=C(COc1ccccc1Br)Nc1ccccc1C(F)(F)F | – | inactive: 4.14% |

| SMILES | Potency | activation |
| --- | --- | --- |
| CCOc1ccc(NC(=O)Cn2ncc3ccccc32)cc1 | inconclusive [activator, partial curve] | – |
| CC1CC(C)CN(CCCNC(=O)c2ccc3c(c2)N(Cc2ccccc2)C(=O)c2ccccc2S3=O)C1 (stereo not given) | – | inactive: 16.6% |
| O=C(c1cccs1)c1ccc(-c2cccs2)s1 | inconclusive [activator, partial curve] | – |
| Cc1nc(NC(=S)NC(=O)c2ccccc2)sc1C | active: 3.98 µM | – |
| Cc1onc(-c2ccccc2)c1C(=O)N=C(N)c1ccc(Cl)cc1 | inconclusive [activator, single point] | – |
| C/C(=N/Nc1ccccc1C(=O)O)c1cccs1 | inconclusive [activator, partial curve] | – |
| CCSc1nnc(NC(=O)c2cc(C)oc2C)s1 | inconclusive [activator, single point] | – |
| Nc1ccc2nc(SCc3cccc(F)c3)sc2c1 | inconclusive [activator, single point] | – |
| COc1ccc2[nH]c(C(=O)Nc3ccc4c(c3)OCO4)cc2c1 | active: 3.16 µM | – |
| O=C(COC(=O)C(O)c1ccccc1)c1ccc2c(c1)OCCO2 (stereo not given) | – | inactive: -5.08% |
| CCC(C)NCCOCCOc1ccc(F)cc1 (stereo not given) | – | inactive: -4.06% |
| CCCOc1ccc(CNC(=O)Cn2ncc3ccccc32)cc1 | inconclusive [activator, single point] | – |
| COc1ccc(-n2nc(C(=O)NCC(=O)N3CCC(C)CC3)c3ccccc3c2=O)cc1 | inconclusive [activator, partial curve] | – |
| CCc1ccc(OCc2n[nH]c(=S)n2Cc2ccccc2)cc1 | – | inactive: -4.75% |
| N#C/C(=C(/O)c1ccc(F)cc1)c1nc2ccccc2s1 | active: 2.51 µM | – |
| O=[N+]([O-])c1ccccc1OCCCOc1cccc2cccnc12 | inconclusive [activator, single point] | – |
| CC(=O)C1=NN(c2ccccc2)C(c2ccc3c(c2)OCO3)N1c1ccccc1 (stereo not given) | – | inactive: -2.88% |
| CC(=O)Nc1cc2c(s1)c1cnn(Cc3ccccc3F)c(=O)c1n2C | – | inactive: 0.87% |
| O=C(/C=C\Nc1ccccn1)c1ccccc1 | active: 0.631 µM | – |
| Cc1ccc2c(c1)-c1ncc(C(=O)c3cc(Br)ccc3O)cc1CO2 | – | inactive: -7.78% |
| COc1cc(Cl)c(C)cc1NC(=O)COc1ccc(C)nc1[N+](=O)[O-] | inconclusive [activator, single point] | – |
| COc1ccc(S(=O)(=O)N2CCOC2CNC(=O)C(=O)NCc2cccnc2)cc1C (stereo not given) | inconclusive [activator, single point] | – |
| Nc1nnc(CC(=O)N/N=C/c2cccc(OCCOc3ccccc3)c2)s1 | inconclusive [activator, partial curve] | – |
| CC1=NN(C(N)=S)C(=O)C1N=Nc1cccc(C(=O)O)c1 (stereo not given) | inconclusive [activator, partial curve] | – |
| O=C(Nc1ccc(N2CCOCC2)cc1)c1nc2ccccc2s1 | active: 0.1 µM | – |
| O=C(CNC(=O)c1ccco1)Nc1ccncc1 | – | inactive: -1.95% |
